Measured values published in PubChem BioAssay AID1745853 (National Center for Advancing Translational Sciences (NCATS), 2022).
Some of the results follow. Further columns of the screen follow, without active or inactive calls.

Legend:
Test in all cases: Primary Screen for Target Class Profiling of Small Molecule Inhibitors of Methyltransferases
[1] = biological target: Glycine N-methyltransferase (Homo sapiens) (UniProt Q14749); conditions: purified enzyme, MTase-Glo SAH luminescence; measured here: GNMT inhibition; at 40 µM; stronger effect = lower value
In short: (§1)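 Each enzyme was assayed with SAM and its substrate. SAH formation detected by MTase-Glo luminescence; single-point 40 uM screen[…].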

[2] = biological target: Guanidinoacetate N-methyltransferase (Homo sapiens) (UniProt Q14353); conditions: purified enzyme, MTase-Glo SAH luminescence; measured here: GAMT inhibition; at 40 µM; stronger effect = lower value
In short: as §1

[3] = biological target: Histamine N-methyltransferase (Homo sapiens) (UniProt P50135); conditions: purified enzyme, MTase-Glo SAH luminescence; measured here: HNMT inhibition; at 40 µM; stronger effect = lower value
In short: as §1

[4] = biological target: Nicotinamide N-methyltransferase (Homo sapiens) (UniProt P40261); conditions: purified enzyme, MTase-Glo SAH luminescence; measured here: NNMT inhibition; at 40 µM; stronger effect = lower value
In short: as §1

[5] = biological target: Phenylethanolamine N-methyltransferase (Homo sapiens) (UniProt P11086); conditions: purified enzyme, MTase-Glo SAH luminescence; measured here: PNMT inhibition; at 40 µM; stronger effect = lower value
In short: as §1
% is set by controls: 0 for no effect and ±100 for the full control effect.

| SMILES | activity change, negative = inhibition [1] | activity change, negative = inhibition [2] | activity change, negative = inhibition [3] | activity change, negative = inhibition [4] | activity change, negative = inhibition [5] |
| --- | --- | --- | --- | --- | --- |
| C=CCn1cc(CN(CC)Cc2ccc(OC)cc2)c(C)n1 | -4.3% | -6.67% | -2.22% | -14.6% | -14.7% |
| O=C(NC1CCOCC1)c1ccc(-c2cc(-c3cn[nH]c3-c3ccccn3)ccn2)cc1 | -7.56% | 2.67% | 6.08% | -12.3% | 0.89% |
| COc1ccccc1CNC(=O)c1cc2n(n1)CC(C)(C(=O)NCc1ccc(C)cc1)N(C)C2=O (stereo not given) | 5.3% | 0% | 4.72% | 3.72% | 4.04% |
| C/C=C(\C)C1C(C)=CC2CCC(OS(=O)(=O)O)C(C)C2C1/C=C/C=C/C(=O)O (stereo not given) | -7.38% | -5.62% | 4.5% | -19.5% | 0.266% |
| C[C@@]12CC3(S(=O)(=O)O)OC(O1)[C@]1(COC(=O)c4ccccc4)[C@H]3C[C@]21O[C@@H]1O[C@H](CO)[C@@H](O)[C@H](O)[C@H]1O | -1.8% | -7.5% | -7.84% | -15.5% | -3.5% |
| CCc1noc(-c2cn(C3CCCN(C(=O)COc4cccc(C)c4)C3)nn2)n1 (stereo not given) | -3.17% | -0.03% | 0.283% | -7.43% | -2.06% |
| COc1ccccc1-c1cnc2n[nH]c(-c3ccc4c(c3)OCO4)c2n1 | -32% | -28% | -31.9% | -21% | -14.2% |
| Cc1noc(C)c1Cc1ccc(C(=O)NC2CCc3nnc(C)n3CC2)o1 (stereo not given) | -4.58% | -2.94% | -1.77% | -10.5% | -4.54% |
| O=C1NC2(CCCN(Cc3cncs3)C2)COc2ccccc21 (stereo not given) | -4.93% | -6.95% | -2.09% | -13.6% | -5.61% |
| COc1cccc(NCc2nnc(C(=O)N3CCC[C@@H]3c3cccc(F)c3)n2-c2ccccc2)c1 | -4.59% | -1.31% | -1.95% | -11.2% | 7.43% |
| CCCn1c(=O)c2ccc(C(=O)NC(C)CC)cc2n2c(=O)n(CC(=O)Nc3ccc(F)cc3)nc12 (stereo not given) | 1.34% | 0% | 1.04% | -4.06% | 4.2% |
| CC1(C(=O)NC2CCCCCCC2)Cn2c(cc3occc32)C(=O)N1Cc1cccc(Cl)c1 (stereo not given) | -3.64% | 3.78% | -0.157% | -3.28% | -1.51% |
| CC1(C(=O)NC2CCCCCC2)Cn2c(ccc2-c2ccco2)C(=O)N1Cc1ccccn1 (stereo not given) | -10.4% | 0% | 2.16% | -11.7% | 0.499% |
| CCCn1c(=O)c2ccc(C(=O)NC(C)C)cc2n2c(SCC(=O)NCc3ccccc3)nnc12 | 3.61% | 0% | 2.41% | 0.948% | 3.02% |
| CN1CCOc2c(C(=O)NCCc3cnc[nH]3)cc(-c3ccccc3F)cc21 | -24% | -7.4% | -24.7% | -31.5% | -1.76% |
| COc1ccccc1CN1C(=O)c2cc(-c3ccccc3)nn2CC1(C)C(=O)NCc1ccccc1 (stereo not given) | 5.59% | 4.2% | 7.17% | 5.42% | 0.467% |
